We go through two molecules from PubChem BioAssay (NCI).

SMILES strings stand for the structures.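 96-well plates; 48 h exposure; 5 concentrations. Endpoints by linear interpolation between flanking doses. Not reached: highest tested concentration assigned. GI50 = concentration required for 50% inhibition of growth. The concentration for full growth arrest is given as TGI.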

The subject of this test is NCI-H322M lung. Briefly: NCI anticancer screen, dose series, 48 h.

As to `Cn1cc(-c2cc3nc(-c4cn(C)c5ncccc45)cc(N)n3n2)c2cc(Cl)ccc21`, the GI50 was 2.76 µM and the TGI came to 10.3 µM.

Take `CN(C(=O)c1ccc(C(F)(F)F)cc1C(F)(F)F)c1sc2c(c1C#N)CCC(=O)C2`: the GI50 is 16.8 µM and the TGI was 34.9 µM.
